# Assay results published in PubChem BioAssay AID686978 (National Center for Advancing Translational Sciences (NCATS), 2013).
# In all, about 420,000 compounds went through this assay and about 64,000 (15%) were called active. The shares of active, inactive and inconclusive entries below differ from those in the screen. The call rests on the fitted dose curve; in most records, active means well fitted inhibition curve with a large enough effect; inconclusive means small, poorly fitted or top-dose-only effect; inactive means flat fitted curve, though single readings scatter. Potencies of inconclusive entries are left out as doubtful fits.
# Test: qHTS for Inhibitors of human tyrosyl-DNA phosphodiesterase 1 (TDP1): qHTS in cells in absence of CPT; further: nearly all actives have a fitted effect of over 55% in size
# Settings: DT40 Tdp1-/- hTDP1 cells, no CPT, ATP luminescence, 48 h; activity change, negative = growth inhibition: at 46.2 µM (top of the series) unless noted
# Summary of the method: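 Camptothecin absent (DMSO only). Human TDP1-complemented DT40 knockout cells, 400 cells/well, 37 °C for minimum 48 hr; ATP measured via CellTiter-Glo, 30 min dark incubation, luminescence.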
# On the % scale 0 is the no-effect control and ±100 the full control effect; potency means the concentration at half of the fitted maximal effect; tags describe the fitted curve by direction and shape.
Structure (SMILES),Potency,"activity change, negative = growth inhibition"
COc1cccc(/C=C2\C(=O)C(=O)c3ccccc32)c1,"inconclusive [inhibitor, partial curve]",–
COC(=O)C1CCCCN1Cc1nc(N2CCCCC2)c2cc(OC)c(OC)cc2n1 (stereo unspecified),–,inactive: -23.7%
C/C(=N\NC(=S)NCc1ccccc1)c1cccc(Br)c1,active: 20.6 µM,–
CC(=O)c1ccc(NC(=O)c2nc(-c3ccc(Cl)cc3)n3c2CCCCC3)cc1,"inconclusive [inhibitor, partial curve]",–
CCN(CC(=O)Nc1ccc2c(c1)OCCO2)CC(=O)Nc1ccc(C)c(S(=O)(=O)N(C)C)c1,"inconclusive [inhibitor, single point]",–
Cn1cc(Br)c(C(=O)N/N=C/c2cc3ccccc3nc2Cl)n1,active: 20.6 µM,–
CC(C)(C)OC(=O)N1CCC(c2c(C(=O)N3CCN(C(=O)c4ccco4)CC3)cnn2-c2cccc(Cl)c2)CC1,"inconclusive [inhibitor, single point]",–
COc1ccccc1OCC(=O)NC1CCCCCCC1,"inconclusive [inhibitor, single point]",–
O=C(COc1ccc(Br)cc1Br)NC1CCCC1,"inconclusive [inhibitor, single point]",–
CSC(=NS(=O)(=O)c1ccccc1)NNC(=O)c1c(-c2c(Cl)cccc2Cl)noc1C,–,inactive: 4.88%
Nc1cc(OC(=O)c2ccc(F)cc2)nn1S(=O)(=O)c1ccccc1,–,inactive: -22%
COc1cccc(OCC(=O)NC2CC(=O)N(c3cccc(OC)c3)C2)c1 (stereo unspecified),–,inactive: -15.2%
COC(=O)c1cc(NC(=O)CC2C(=O)OCCN2Cc2ccccc2)cc(C(=O)OC)c1 (stereo unspecified),–,inactive: -0.602%
Cc1ccccc1CSc1nc2c(sc3ccccc32)c(=O)n1CCCC(=O)NCCCOC(C)C,"inconclusive [inhibitor, single point]",–
COc1cccc2cc(C(=O)CS(=O)(=O)c3ccc(C)cc3)c(=O)oc12,"inconclusive [inhibitor, single point]",–
Cc1ccnc(NS(=O)(=O)c2ccc(NC(=O)c3snnc3C)cc2)n1,–,inactive: 10%
CCOC(=O)c1cnc2c(c(C)nn2CC)c1NCCN1CCOCC1,"inconclusive [inhibitor, partial curve, poor fit]",–
CCOC(=O)N1CCN(C(=O)c2oc(=O)c3ccccc3c2-c2ccc(C)cc2)CC1,"inconclusive [inhibitor, single point]",–
O=C(Nc1cccc2ncccc12)c1cccnc1,–,inactive: -21.8%
C[C@@H]1COc2cccc(N3CCC[C@H]3CO)c2S(=O)(=O)N1,–,inactive: -27.8%
CCOc1ccc(-c2nnc(-c3ccccc3)o2)cc1,"inconclusive [inhibitor, partial curve, poor fit]",–
CN1CCN(S(=O)(=O)c2ccc(Sc3nnnn3-c3ccccc3)c([N+](=O)[O-])c2)CC1,active: 3.26 µM,–
CCCCNC(=O)O[C@H]1C[C@@H]2CCN3C(=O)CCC[C@H]([C@H]1Cc1ccccc1)[C@H]23,"inconclusive [inhibitor, single point]",–

Structure (SMILES),Potency,"activity change, negative = growth inhibition"
COCCNC(=S)N(CCc1c(C)[nH]c2ccc(C)cc12)Cc1cc(OC)c(OC)c(OC)c1,"inconclusive [inhibitor, full curve, poor fit]",–
NC(=O)N1c2ccccc2CC(=O)c2ccccc21,"inconclusive [inhibitor, single point]",–
O=C(NCc1ccccc1Cl)C1CCCN1S(=O)(=O)c1ccc(F)cc1 (stereo unspecified),–,inactive: -28.8%
Cc1c2cc(O)c(=O)cc-2oc2cc(O)c(O)cc12,"inconclusive [inhibitor, single point]",–
O=C(c1ccc(N2C(=O)CCC2=O)cc1)N1CCOCC1,–,inactive: -1.22%
Cc1cc(C)c2c(=O)cc(C(=O)Nc3sc4c(c3C(=O)NCc3ccco3)CCCC4)oc2c1,–,inactive: -22.4%
Cc1ccc(-c2csc(C(C)(O)c3ccc(F)c(F)c3)n2)cc1C (stereo unspecified),–,inactive: -25.8%
Cc1c(C(=O)NCC2CCCO2)sc2nc(-c3ccccc3)cn12 (stereo unspecified),"inconclusive [inhibitor, single point]",–
COc1ccc(-n2c(=S)[nH]c3ncccc3c2=O)cc1,–,inactive: 2.21%
Cc1cccc(OCC(=O)N2CCC(c3nc4ccccc4o3)CC2)c1C,"inconclusive [inhibitor, single point]",–
CN(C)C(CNc1ccc(S(C)(=O)=O)cc1[N+](=O)[O-])Cc1ccccc1 (stereo unspecified),–,inactive: -23%
N#Cc1ccccc1OCC(=O)OCC(=O)Nc1ccc2c(c1)OCO2,–,inactive: 22.9%
Cc1cc(C)c(OCCCNC2CCCC2)c(Br)c1,active: 7.31 µM,–
Cc1ccc(S(=O)(=O)NC(C(=O)N2CCN(S(=O)(=O)c3cccc(F)c3)CC2)C(C)C)cc1 (stereo unspecified),–,inactive: -20.5%
O=C(c1cc(S(=O)(=O)N2CCOCC2)ccc1Cl)N1CCc2ccccc2C1,"inconclusive [inhibitor, single point]",–
COc1ccc(OC)c(/C=C/C(=O)OCC(=O)N2CCN(S(=O)(=O)c3ccc(C)cc3C)CC2)c1,"inconclusive [inhibitor, single point]",–
O=C(CCCc1ccccn1)c1ccc(-c2ccccc2)cc1,"inconclusive [inhibitor, single point]",–
COc1cc(C(=O)NCCN2C(=O)S/C(=C\c3cccs3)C2=O)cc(OC)c1OC,active: 16.4 µM,–
O=C(CCn1c(=O)[nH]c2ccccc2c1=O)Nc1ccccc1,"inconclusive [inhibitor, full curve]",–
COC(=O)c1cc2c(ccn2-c2ccc(F)cc2)n1CC(C)C,"inconclusive [inhibitor, single point]",–
N#CC1(Nc2cccc(Br)c2)C(=O)Nc2ccccc21 (stereo unspecified),"inconclusive [inhibitor, single point]",–
CC(=O)N1CCN(Cc2cc(=O)oc3ccccc23)CC1,–,inactive: 2.79%
O=C(CSc1ccc(S(=O)(=O)N2CCCC2)cn1)Nc1ccc([N+](=O)[O-])cc1C(F)(F)F,"inconclusive [inhibitor, partial curve, poor fit]",–
